The assay addresses His-tagged SARS-CoV-2 S NTD (SARS-CoV-2). Briefly: BLI. For orientation: BLI is a label-free optical method that tracks binding on a fibre tip over time.

B1: FLAG-tagged AXL (293F, purified) (receptor)
chain: not shown
With B1, the Kd (usually a measure of binding affinity in units of concentration) came to 882 nM.

The values above are taken from article PMC7791157 (2021).
